Where a chain is given by its changes, count along the chain named. Read-outs that look alike come from different tables or passages of the source.
B1: Fyn SH3-derived polypeptide 1L3-B09 (parental clone) (designed binder, not shown: small tags and cut ends)
chain: GVTLFVALYDYANHGNRDLSFHKGEKFQILSTHEYEDWWEARSLTTGETGYIPSNYVAPVDSIQ
B2: Fyn SH3-derived polypeptide 11L11-A09 (designed binder, not shown: small tags and cut ends)
chain: B1 chain with A12S, N13R, H14K, G15S, R17L
B3: Fyn SH3-derived polypeptide 11L0-C06 (designed binder, not shown: small tags and cut ends)
chain: B1 chain with A12K, N13Q, H14K, N16H, R17L
B4: Fyn SH3-derived polypeptide 11L6-F03 (designed binder, not shown: small tags and cut ends)
chain: B1 chain with A12D, N13K, H14L, G15S, N16A, R17L
B5: Fyn SH3-derived polypeptide 11L10-A05 (designed binder, not shown: small tags and cut ends)
chain: B1 chain with A12S, N13S, H14R, N16V, R17L

Experiments:
Experiment in all cases: cell-based or functional assay
[1] = target: T1, recombinant human glycosylated IL-17A (produced in-house in HEK EBNA cells) (human, UniProt Q16552 24-155, glycosylated (N-linked glycosylation site; position not given))
[2] = target: T1, recombinant human glycosylated IL-17A …; remark: listed apart in the source
[3] = target: T2, non-glycosylated human IL-17A (R&D Systems) (human, UniProt Q16552 24-155)
[4] = target: T2, non-glycosylated human IL-17A (R&D …); remark: listed apart in the source
[5] = target: T2, non-glycosylated human IL-17A (R&D …); remark: listed apart in the source

Row | Binder | IC50 value (nM), inhibition of IL-6 production by normal human dermal fibroblasts stimulated with IL-17A and TNFα [1] [nM] | also measured
1 | B1 | 300 | –
2 | B2 | – | IC50 value (nM), inhibition of IL-6 production by normal human dermal fibroblasts stimulated with IL-17A and TNFα [2]: 66 nM
3 | B3 | 35 | IC50 (read off the curve); % inhibition of IL-6 release from normal human dermal fibroblasts stimulated with IL-17A + TNFα [3]: ~40 nM
4 | B4 | 63 | IC50 (read off the curve); % inhibition of IL-6 release from normal human dermal fibroblasts stimulated with IL-17A + TNFα [4]: ~50 nM
5 | B5 | 28 | IC50 (read off the curve); % inhibition of IL-6 release from normal human dermal fibroblasts stimulated with IL-17A + TNFα [5]: ~40 nM

Source: patent publication US20150322125A1 (COVAGEN, published 2015)
